Results reported in the supplement of paper PMC12217912.
The other results are listed elsewhere or left out. Sequences were assembled here from the parent chain. Values near 0.05 are background.

B1: TEV protease; numbered along this chain (parent)
chain: MGESLFKGPRDYNPISSSICHLTNESDGHTTSLYGIGFGPFIITNKHLFRRNNGTLVVQSLHGVFKVKDTTTLQQHLVDGRDMIIIRMPKDFPPFPQKLKFREPQREERICLVTTNFQTKSMSSMVSDTSCTFPSGDGIFWKHWIQTKDGQCGSPLVSTRDGFIVGIHSASNFTNTNNYFTSVPKNFMELLTNQEAQQWVSGWRLNADSVLWGGHKVFMVKPEEPFQPVKEATQL

Variants of: B1
Assay: raw area under fraction-flipped curve 0-4 h after induction (AUC4h, not background-subtracted), DNA-recorder readout of cleavage of the substrate (dimensionless); higher = more cleavage of the substrate by the protease variant
Conditions: temperature: 34 °C; time window: 0-4 h after rhamnose induction
Description: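 In vivo DNA recorder in E. coli TOP10(DE3) ΔrhaA at 34 °C. Each TEVp single-site mutant (parent TEVp 0) is paired with a single-site variant of the 7-mer TEVs (canonical ENLYFQ|S). The substrate sits between flexible linkers in a Bxb1-sfGFP-TEVs-SsrA fusion, so cleavage stabilises Bxb1 and speeds flipping of a recombination array, read by NGS. The value is the raw area under the fraction-flipped curve over 0-4 h after rhamnose induction (AUC4h), with ≥20 reads per time point. It is not background-subtracted; inactive controls average about 0.047.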
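Also: Bxb1 expression induced with 0.2% (w/v) L-rhamnose at OD600 near 0.5, cultures sampled hourly, flipped fraction per protease–substrate barcode pair counted by paired-end Illumina sequencing.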

| Variant | area with substrate ENLAFQS | area with substrate ENLCFQS | area with substrate ENLDFQS | area with substrate ENLEFQS | area with substrate ENLFFQS | area with substrate ENLHFQS | area with substrate ENLKFQS | area with substrate ENLLFQS | area with substrate ENLNFQS | area with substrate ENLPFQS | area with substrate ENLRFQS | area with substrate ENLSFQS | area with substrate ENLTFQS | area with substrate ENLWFQS | area with substrate ENLIFQS | area with substrate ENLMFQS | area with substrate ENLQFQS | area with substrate ENLVFQS | area with substrate ENLGFQS |
| --- | --- | --- | --- | --- | --- | --- | --- | --- | --- | --- | --- | --- | --- | --- | --- | --- | --- | --- | --- |
| P104D | 0.0599 | 0.0512 | 0.063 | 0.0493 | 0.0719 | 0.0524 | 0.059 | 0.0542 | 0.0575 | 0.06 | 0.0327 | 0.0418 | 0.0571 | 0.0514 |  |  |  |  |  |
| S17W | 0.0549 |  | 0.0589 | 0.065 | 0.0876 | 0.0814 | 0.0824 | 0.061 | 0.0463 | 0.05 | 0.0708 | 0.0581 |  | 0.0657 | 0.0868 | 0.0688 | 0.0211 | 0.0798 |  |
| H168Y | 0.0562 | 0.0631 | 0.069 | 0.0594 |  | 0.0729 | 0.0451 | 0.0546 | 0.067 | 0.0673 | 0.0608 | 0.0603 |  | 0.045 | 0.0618 |  | 0.035 | 0.0605 | 0.0716 |
| S18C | 0.0574 | 0.0706 | 0.0636 | 0.0894 | 0.0698 | 0.0717 | 0.0832 | 0.0719 | 0.0654 | 0.0609 | 0.0757 | 0.0654 |  | 0.0625 | 0.0796 | 0.0696 | 0.0672 | 0.088 |  |
| G136R | 0.0676 | 0.0696 | 0.0644 | 0.0688 | 0.0837 | 0.0422 | 0.0666 |  | 0.058 | 0.0681 | 0.0711 | 0.0676 |  | 0.0492 |  |  | 0.0587 | 0.0499 |  |
| S16H | 0.0584 | 0.0739 | 0.0684 | 0.0637 | 0.0833 | 0.0551 | 0.0707 | 0.0649 | 0.0669 | 0.0479 | 0.0724 | 0.0501 | 0.0462 | 0.0671 | 0.0982 | 0.0628 | 0.061 | 0.0824 | 0.0615 |
| R160K | 0.0543 |  | 0.0676 | 0.0759 | 0.096 |  | 0.0776 |  | 0.0537 | 0.069 | 0.0801 | 0.049 |  | 0.0711 | 0.0833 | 0.0928 |  |  |  |
| M88G | 0.0348 |  | 0.0464 | 0.0354 | 0.0545 | 0.0509 |  | 0.0408 | 0.0427 | 0.0463 | 0.051 |  |  |  | 0.0752 | 0.052 | 0.0441 |  |  |
| S32G | 0.0516 | 0.0415 | 0.0596 | 0.0588 | 0.0915 | 0.0685 | 0.0748 | 0.0527 | 0.0653 | 0.0532 | 0.0673 | 0.0696 | 0.0667 | 0.058 | 0.0686 | 0.0627 | 0.0648 | 0.0909 |  |
| P93S | 0.0573 |  | 0.0548 |  |  | 0.0232 | 0.0765 |  | 0.0529 | 0.065 |  | 0.0647 |  | 0.0363 |  |  |  |  |  |
| P40S | 0.0609 | 0.0806 | 0.0802 | 0.061 | 0.0892 | 0.0742 | 0.0797 |  | 0.0834 | 0.0629 | 0.0729 | 0.0622 |  | 0.132 | 0.0368 | 0.0881 | 0.0898 |  | 0.0316 |
| G8P | 0.0668 |  | 0.0649 | 0.0558 | 0.103 | 0.0765 |  |  |  |  |  | 0.0629 |  | 0.0547 | 0.126 | 0.0658 |  |  | 0.117 |
| T72R | 0.0621 |  | 0.0847 | 0.0675 | 0.109 | 0.0743 |  | 0.0617 | 0.0792 | 0.0535 | 0.0647 | 0.0601 | 0.0773 |  | 0.0938 | 0.0799 |  | 0.0761 | 0.0638 |
| P96S | 0.0669 |  |  |  | 0.0628 | 0.0487 | 0.0733 |  | 0.0535 |  | 0.107 |  |  |  | 0.0857 | 0.0585 | 0.0852 |  |  |
| L48G | 0.0504 | 0.06 | 0.0479 | 0.0596 | 0.0678 | 0.058 | 0.0611 |  | 0.0629 | 0.0651 | 0.0724 | 0.0627 | 0.0696 | 0.06 | 0.0973 |  | 0.0902 | 0.0484 |  |
| L48K | 0.0596 | 0.0593 | 0.0594 | 0.0665 | 0.0528 |  |  | 0.0646 | 0.0558 | 0.0547 | 0.0665 | 0.0575 |  | 0.0516 |  |  | 0.0544 | 0.0531 | 0.0689 |
| P14I | 0.0613 | 0.0853 | 0.0625 | 0.0748 | 0.0831 |  | 0.076 | 0.0675 | 0.0669 | 0.0528 | 0.0741 | 0.0619 | 0.0614 |  | 0.0557 | 0.063 | 0.066 | 0.077 | 0.0633 |
| unchanged | 0.0656 | 0.0714 | 0.0631 | 0.0644 | 0.086 | 0.0705 | 0.0777 | 0.0725 | 0.0646 | 0.0603 | 0.0747 | 0.0634 | 0.0687 | 0.0691 | 0.0847 | 0.0736 | 0.0699 | 0.0842 | 0.0671 |
| T192E | 0.0608 |  |  |  | 0.0665 | 0.0754 | 0.0752 | 0.0512 | 0.0711 | 0.0599 | 0.0633 | 0.0551 |  |  |  |  |  |  |  |
| N24D | 0.0519 | 0.0619 | 0.0599 | 0.0519 | 0.0628 | 0.067 |  | 0.0403 | 0.0611 | 0.0683 | 0.0713 | 0.0498 |  | 0.0533 |  | 0.0619 | 0.0553 | 0.0608 | 0.0651 |
| P184L | 0.0527 |  | 0.0435 |  | 0.0586 |  | 0.0669 |  | 0.0632 |  | 0.0554 |  | 0.0348 | 0.06 |  | 0.0612 | 0.0498 | 0.0527 |  |
| P184W | 0.0621 | 0.0564 | 0.056 | 0.0743 | 0.0729 |  | 0.0589 | 0.0635 | 0.0648 | 0.0588 |  | 0.0616 | 0.0716 | 0.0672 |  |  | 0.0555 | 0.0424 | 0.0712 |
| P184V | 0.0544 | 0.0083 | 0.0712 | 0.0584 | 0.064 | 0.0618 |  |  | 0.0584 |  | 0.0606 |  | 0.0638 | 0.0494 |  |  | 0.0565 |  | 0.0724 |
| N13V | 0.0632 | 0.0795 | 0.0649 | 0.0654 | 0.0787 | 0.0739 | 0.0743 | 0.0713 | 0.0692 | 0.0491 | 0.0818 | 0.063 | 0.0641 | 0.0675 | 0.0877 | 0.0899 |  | 0.079 |  |
| D128K | 0.0737 | 0.0692 |  |  | 0.0871 | 0.0662 | 0.0692 | 0.0719 | 0.0565 |  |  |  |  | 0.0763 | 0.0742 |  |  | 0.0771 |  |
